Reference: article PMC4336329 (PLoS ONE, 2015)
Hit rate of the full screen: of about 310,000 compounds, about 2,200 (0.71%) showed an effect of 50% or more. Effects have a minus sign here. Some of the results follow. Where a SMILES comes first, the peptide text is derived from it. [ ]: non-standard residue; d: D form. ξ: configuration not given here. ξF = NC(Cc1ccccc1)C(=O)O

Molecular target: human ether-à-go-go-related gene (hERG) potassium channel (human, UniProt Q12809)
Assay: primary screen, population patch clamp on CHO cells stably expressing hERG

Chain of human ether-à-go-go-related gene (hERG) potassium channel (Q12809 whole entry, looked up): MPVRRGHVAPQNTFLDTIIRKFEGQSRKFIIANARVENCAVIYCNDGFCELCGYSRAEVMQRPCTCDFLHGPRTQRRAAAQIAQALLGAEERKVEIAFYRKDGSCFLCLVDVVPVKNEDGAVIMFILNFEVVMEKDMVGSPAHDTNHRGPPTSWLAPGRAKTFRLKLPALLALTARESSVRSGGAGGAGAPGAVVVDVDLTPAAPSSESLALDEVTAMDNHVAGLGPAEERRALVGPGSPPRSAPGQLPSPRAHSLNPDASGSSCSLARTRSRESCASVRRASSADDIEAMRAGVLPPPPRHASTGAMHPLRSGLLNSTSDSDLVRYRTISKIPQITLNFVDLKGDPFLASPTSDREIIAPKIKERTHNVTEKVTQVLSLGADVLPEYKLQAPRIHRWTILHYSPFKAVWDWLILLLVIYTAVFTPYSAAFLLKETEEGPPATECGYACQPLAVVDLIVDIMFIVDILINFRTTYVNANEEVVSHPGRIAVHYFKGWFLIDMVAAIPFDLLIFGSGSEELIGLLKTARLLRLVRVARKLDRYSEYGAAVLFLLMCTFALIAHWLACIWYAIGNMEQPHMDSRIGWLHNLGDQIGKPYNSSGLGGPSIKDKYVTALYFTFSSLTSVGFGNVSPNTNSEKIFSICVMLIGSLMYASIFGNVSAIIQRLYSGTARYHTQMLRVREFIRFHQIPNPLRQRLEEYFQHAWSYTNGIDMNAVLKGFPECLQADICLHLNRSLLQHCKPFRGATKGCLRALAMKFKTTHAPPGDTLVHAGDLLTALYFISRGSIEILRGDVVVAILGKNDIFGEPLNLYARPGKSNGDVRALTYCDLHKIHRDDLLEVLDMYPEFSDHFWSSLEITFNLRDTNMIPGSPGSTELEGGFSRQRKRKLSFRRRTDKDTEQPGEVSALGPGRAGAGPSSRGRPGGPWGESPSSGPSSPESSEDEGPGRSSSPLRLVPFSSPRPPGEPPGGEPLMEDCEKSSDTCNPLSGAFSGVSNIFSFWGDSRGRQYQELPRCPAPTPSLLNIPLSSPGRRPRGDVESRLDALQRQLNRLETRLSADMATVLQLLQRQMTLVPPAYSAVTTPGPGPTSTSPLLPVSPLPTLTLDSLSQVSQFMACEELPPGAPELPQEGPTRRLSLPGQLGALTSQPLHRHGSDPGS

SMILES | hERG current change (%, negative = inhibition) at 1uM [%]
CCOC(=O)C1CCCN(C(=S)Nc2ccc(Nc3ccccc3)cc2)C1 (stereo not shown) | -4.29
CCc1ccc(C(=O)/C=C/NCc2ccc(F)cc2)cc1 | 3.85
C[C@H](N)C(=O)N1CCC(C(=O)N[C@@H](Cc2ccccc2)C(=O)Nc2ccc(F)cc2)CC1 | -1.62
CN(C(=O)COc1cccc(C#N)c1)C1CCS(=O)(=O)C1 (stereo not shown) | 4.06
CSc1nc(C(=O)N2CCCC(C(=O)c3ccc(Cl)cc3)C2)cs1 (stereo not shown) | 18.9
Cc1cc(-c2ccco2)n(CC(=O)NCCCc2ccccc2)n1 | 14.3
O=C1CCCC(=O)N1c1ccc(F)cc1 | 10.5
CCNC(=S)NNC(=O)Cn1c(=O)c2c(ncn2CCOC)n(Cc2ccccc2)c1=O | 8.98
O=C(CN1CCC(N2CCCCC2)CC1)N1CCCc2ccccc21.O=C(O)C(=O)O | 25.3
CSCC(=O)NS(=O)(=O)c1ccc(C)cc1 | 11.4
Cc1ccccc1N1C(=O)C2ON(c3ccccc3)C(c3ccncc3)C2C1=O (stereo not shown) | 6.28
CCS(=O)(=O)N1CCC(C(=O)NCc2ccc(OC)cc2OC)CC1 | 0.819
CCN1CCN(C(=O)C(NS(=O)(=O)c2ccc3nc(C)sc3c2)C(C)C)CC1 (stereo not shown) | 3.53
CCOC(=O)c1nnn(CC(=O)Nc2cc(F)ccc2F)c1C(=O)OCC | 5.94
O=C(COc1ccc2c(-c3ccccc3)cc(=O)oc2c1)NCC1CCC(C(=O)O)CC1 (stereo not shown) | 11.5
O=C(NCCCn1ccnc1)C1CC(c2ccccc2Cl)=NO1 (stereo not shown) | 10
COc1ccc(/C=C2\SC(=S)N(CC(=O)NC3C=CS(=O)(=O)C3)C2=O)cc1 (stereo not shown) | 18
Br.CN1CCN(C(=O)Cc2ccccc2)CC1 | 13.9
CCCc1nnc(NC(=O)C2CCN(C(=O)C3CC(=O)N(c4ccc(C)cc4)C3)CC2)s1 (stereo not shown) | 11.2
O=C(O)CCC(=O)N1c2ccccc2NC2=C(C(=O)CC(c3ccc(F)cc3)C2)C1c1ccc([N+](=O)[O-])o1 (stereo not shown) | 16.6
CCOc1ncccc1C(=O)OCC(=O)Nc1cc(C)ccc1C | 9.63
O=C(Nc1ccc2c(c1)OCCO2)c1ccccc1F | 6.56

SMILES | hERG current change (%, negative = inhibition) at 1uM [%]
NC(=O)c1nsc(C(=O)N(c2ccc(F)cc2)C(C(=O)NCC2CCCO2)c2ccc3ncccc3c2)c1N (stereo not shown) | -1.47
COc1ccccc1OCc1ccc(C(=O)NC2CCCCC2)o1 | 6.11
CCCCOc1ccc(C(=O)NCC(=O)NCCCn2nc(C)cc2C)cc1 | 7.22
CCOc1cccc(-c2nnc(SCC(=O)Nc3cc(C)ccc3OC)n2N)c1 | -3.42
N#CC(C#N)=c1ccc2c(c1)N1C(c3ccccc3)=CC(c3ccccc3)C3CCCCC31N=2 (stereo not shown) | 7.27
CC1(C(O)(C#CC[N+]2(C)CCCCC2)c2ccccc2)CCCC1.[I-] (stereo not shown) | 21.9
C=CCOc1cccc(C2/C(=C(/O)c3ccc(F)cc3)C(=O)C(=O)N2CCN2CCOCC2)c1 (stereo not shown) | 12.9
Cc1ccc(NC(=O)CCc2nnc(SCC(=O)Nc3ccccc3C)n2C)cc1Cl | 11.7
Cc1cc(C(=O)Cn2cnc3ccccc3c2=O)c(C)n1C1CC1 | 6.06
CCn1c(=O)c(C(=O)NCCCc2ccccc2)c(O)c2ccccc21 | 10.8
Nc1nnnn1CC(=O)N/N=C/c1cc([N+](=O)[O-])ccc1Cl | 20.8
COc1ccccc1-n1c(SCC(N)=O)nc2c(c1=O)SCC2 | 8.14
Cc1nn(-c2ccccc2)c2sc(C(=O)c3c(N)n(C)c(=O)n(C)c3=O)cc12 | 1.87
COc1cc([C@H](Cc2ccccc2)NC(C)=O)oc(=O)c1 | 2.59
COCCNC(=O)CC(c1ccccc1)c1ccccc1 | 5.83
COc1ccc(CNC(=O)CCS(=O)(=O)c2ccc3c(c2)NC(=O)CS3)cc1 | 13.6
N#C/C(=C(/O)CSc1ccccc1C(=O)O)c1nc2ccccc2s1 | 11.7
CCOC(=O)N1CCN(S(=O)(=O)c2ccc(C(=O)Nc3nnc(CSC)o3)cc2)CC1 | -4.18
O=C(NCc1ccncc1)C(=O)Nc1nccs1 | 18.8
CC(C)Cn1c(N)cc(=O)n(C)c1=O | 17
O=C(Nc1nc(COc2ccccc2)cs1)c1ccccc1F | 11.9
COC(=O)c1ccc(/C=N/Nc2nc(C)c(C)s2)cc1 | 13.3

SMILES | hERG current change (%, negative = inhibition) at 1uM [%]
COc1ccc(C(CNC(=O)C2CC(=O)N(Cc3ccccc3)C2)N2CCCC2)cc1 (stereo not shown) | 7.46
COc1nc(-c2ccccc2)c2cc(Br)ccc2n1 | 5.04
Cl.O=C(C(c1ccccc1)N1CCOCC1)N1CCOCC1 (stereo not shown) | -5.9
Cc1nc(CCNC(=O)c2cc(COc3ccc(F)cc3Cl)on2)sc1C | 6.73
COc1cccc(OC)c1OCCN1CCN(C(c2ccccc2)c2ccccc2)CC1 | -5.79
COc1cccc(NC(=O)C(C)Oc2ccccc2)c1 (stereo not shown) | 7.93
COc1cc(S(=O)(=O)NCCN2CCOCC2)c(OC)cc1Cl | 4.64
CCOC(=O)C(Cc1ccccc1)NC(=O)CNC(C)=O (stereo not shown) (Ac-Gly-[ξF]-OEt) | -11.5
Cn1cnnc1SCC(=O)Nc1ccccc1 | 8.15
NNc1nc(-c2ccccc2)c2cc(Br)ccc2n1 | 12.7
CC(=O)c1ccc(-c2cccs2)s1 | 6.1
O=c1cc(C(F)(F)F)nc(-c2ccccc2OC(F)(F)F)[nH]1 | 6.78
COc1ccc(CCn2c(SCC(=O)Nc3cc(C)on3)nc3ccsc3c2=O)cc1OC | 12.7
Cn1nccc1C(=O)Oc1ccc(/C=N/NC(=O)c2ccccc2O)cc1 | 17.1
C=C1[C@@H](OC(C)=O)CC[C@]2(C)[C@@H]1C[C@@H]1C[C@H](OC(C)=O)C(C)=C([C@@H](OC(C)=O)[C@@H]2OC(C)=O)C1(C)C | 6.94
Cc1nn(C)c(Cl)c1CN1CCN(C2CCCCC2)C(CCO)C1 (stereo not shown) | -0.475
COc1ccc(-n2cc(-c3ccccc3)c3c(NCCCN4CCOCC4)ncnc32)cc1 | 4.12
COc1ccc2c(c1)CCc1c(C(=O)Nc3ccc(OC)c(OC)c3)noc1-2 | 8.64
Cc1cc(C)c(NC(=O)CS(=O)CC(=O)Nc2ccc(F)cc2F)c(C)c1 (stereo not shown) | 15.4
CC(C)=C1C2C=CC1C(C(=O)Nc1cccc(C)c1)C2C(=O)O (stereo not shown) | 7.5
O=C(N/N=C/c1cccc(OC(=O)c2ccc([N+](=O)[O-])cc2)c1)c1cccnc1 | 14.1
c1ccc(C2=Nn3c(nnc3-c3ccco3)SC2)cc1 | 2.41

SMILES | hERG current change (%, negative = inhibition) at 1uM [%]
COc1ccc(NC(=O)C(=O)NNC(=O)COc2ccc(Cl)cc2)c(OC)c1 | -4.03
O=C(CN(Cc1ccco1)C(=O)Cn1nnc(-c2cccs2)n1)NCC1CCCO1 (stereo not shown) | 12.7
COc1ccc(CNC(=O)c2cc(C(=O)C3CC3)c[nH]2)cc1 | -2.9
Cc1cc(/C=N/NC(=O)C(=O)N2CCCC2)c(C)n1-c1cccc(Br)c1 | 12.6
COc1ccc(NC(=O)COC(=O)CCCOc2ccc(Cl)cc2Cl)cc1 | 7.33
NS(=O)(=O)c1ccc(CCNC(=O)CCCn2c(=O)[nH]c3ccc(Br)cc3c2=O)cc1 | 11.6
CC(C)C(=O)NC(c1cccs1)c1cc([N+](=O)[O-])c2cccnc2c1O (stereo not shown) | 12.1
Cc1noc(C)c1CSCC(=O)Nc1cc(C(F)(F)F)ccc1N1CCCCC1 | -7.13
COc1ccc(C(=O)NC2CCN(S(=O)(=O)Cc3ccccc3)CC2)c(OC)c1 | 2.24
C/C(Cn1cnc([N+](=O)[O-])n1)=N\NC(=O)c1ccccc1O | 1.89
CCCCNC(=O)Nc1nc2ccc(CC)cc2s1 | 15.1
O=C(NCCO)c1nc(NCCO)c2ccccc2n1 | 8.52
Cc1cc(C)n(-c2nc3ccccc3[nH]c2=O)n1 | 17.5
Cc1ccc(NC(=O)C(=O)NNC(=O)c2cccs2)cc1 | 10.9
Cc1ccc(N(C(=O)CCC(=O)Nc2cc(C)on2)C(C(=O)NC2CCCC2)c2ccccc2)cc1 (stereo not shown) | 11.1
CCCCCC(=O)NN=C1CCN(Cc2ccccc2)CC1 | 4.09
C=CCn1c2ccccc2c2nnc(SCCN3CCCCC3)nc21 | -13.2
CCC1C2Cn3c(nc4ccccc43)C1N(C)O2 (stereo not shown) | -5.38
O=C(O)/C=C/C(=O)Nc1ccc2c(c1)C(=O)c1ccccc1C2=O | 10.2
Cc1nc2c(ccc3c2ccc2nc(C)sc23)s1 | 13.6
CC(=O)N1CCN(c2ccccc2NC(=O)c2cccs2)CC1 | -16.1
Cc1ccnc(NC(=S)NC(=O)/C=C/c2ccccc2)c1 | 9.59
